# The list shows a part of the results.
# B1: B160 (Bifidobacterium sp) (protein)
# chain: MVSHNKRIVAALAAVAAMGIGLAGCGGSDTAGDTKSGSDGGVVNITYMHRLPDSEGMTLVNDIVAKWNKEHPNIQVKATKFDGNAADMIKKLETDVKAGNAPDLAQVGYAEVPEVFTKGLLQDVTDEAAKYKDDFASGPFALMQVDGKTYGLPQDTGPLTYFYNAAEFEKLGITVPKTADELIETAKKTAAQGKYIMTFTPDEAMMMMSGQAGASGPWYKVDGNSWVVNTQTKGSKAVADVYQQLIDNKAALTNPRWDASFDNSIQSGQLIGTVAAAWEAPLFIDSAGGTGAGEWKVTQLGDWFGNGTKTGANGGSGVAVLKGSKHPAEAMEFLDWFNTQVDDLVSQGLVVAATTADAKTPQKWSDYFSGQDVMAEFKTANDNMGDFTYMPGFSAVGAAMKQTAAKAADGSAKVSDVFDTAQKTSVDTLKNLGLSVKE
# Columns and labels:
# Experiment in all cases: glycan array binding signal (z-score within array); higher = stronger binding
# Settings in all cases: glycan notation: IUPAC condensed, linker removed
# [1] = molecular target: Fuc(a1-2)[Gal(a1-3)]Gal(b1-4)GlcNAc(b1-2)Man(a1-3)[Fuc(a1-2)[Gal(a1-3)]Gal(b1-4)GlcNAc(b1-2)Man(a1-6)]Man(b1-4)GlcNAc(b1-4)[Fuc(a1-6)]GlcNAc
# Summary of the method: (§1)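 Glycan array data were curated from 3228 arrays in the Consortium for Functional Glycomics database and kept only where the protein sequence was available. Glycan names were converted to IUPAC-condensed notation, and columns mapping to the same glycan were averaged. The binding signal is a within-array Z-score, averaged across arrays of the same protein sequence at different concentrations or buffers and across linkers. Negative Z-scores can be read as non-binding.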
# [2] = molecular target: Fuc(a1-2)[Gal(a1-3)]Gal(b1-4)GlcNAc(b1-3)GalNAc
# Summary of the method: as §1
# [3] = molecular target: Fuc(a1-2)[Gal(a1-3)]Gal(b1-4)GlcNAc(b1-3)[Fuc(a1-2)[Gal(a1-3)]Gal(b1-4)GlcNAc(b1-6)]GalNAc
# Summary of the method: as §1
# [4] = molecular target: Fuc(a1-2)[Gal(a1-3)]Gal(b1-4)GlcNAc(b1-6)GalNAc
# Summary of the method: as §1
# [5] = molecular target: Fuc(a1-2)[Gal(a1-3)]Gal(b1-4)[Fuc(a1-3)]Glc
# Summary of the method: as §1
# [6] = molecular target: Fuc(a1-2)[Gal(a1-3)]Gal(b1-4)[Fuc(a1-3)]GlcNAc
# Summary of the method: as §1
# [7] = molecular target: Fuc(a1-2)[Gal(a1-3)]Gal(b1-4)[Fuc(a1-3)]GlcNAc(b1-3)GalNAc
# Summary of the method: as §1
# [8] = molecular target: Fuc(a1-2)[Gal(a1-4)]Gal(b1-4)GlcNAc
# Summary of the method: as §1
# [9] = molecular target: Fuc(a1-2)[GalNAc(a1-3)]Gal
# Summary of the method: as §1
# [10] = molecular target: Fuc(a1-2)[GalNAc(a1-3)]Gal(b1-3)GalNAc(a1-3)[Fuc(a1-2)]Gal(b1-4)GlcNAc
# Summary of the method: as §1
# [11] = molecular target: Fuc(a1-2)[GalNAc(a1-3)]Gal(b1-3)GalNAc(b1-3)Gal(a1-4)Gal(b1-4)Glc
# Summary of the method: as §1
# [12] = molecular target: Fuc(a1-2)[GalNAc(a1-3)]Gal(b1-3)GlcNAc
# Summary of the method: as §1
# [13] = molecular target: Fuc(a1-2)[GalNAc(a1-3)]Gal(b1-3)GlcNAc(b1-2)Man(a1-3)[Fuc(a1-2)[GalNAc(a1-3)]Gal(b1-3)GlcNAc(b1-2)Man(a1-6)]Man(b1-4)GlcNAc(b1-4)GlcNAc
# Summary of the method: as §1
# [14] = molecular target: Fuc(a1-2)[GalNAc(a1-3)]Gal(b1-3)GlcNAc(b1-2)Man(a1-3)[Fuc(a1-2)[GalNAc(a1-3)]Gal(b1-3)GlcNAc(b1-2)Man(a1-6)]Man(b1-4)GlcNAc(b1-4)[Fuc(a1-6)]GlcNAc
# Summary of the method: as §1
# [15] = molecular target: Fuc(a1-2)[GalNAc(a1-3)]Gal(b1-3)GlcNAc(b1-3)GalNAc
# Summary of the method: as §1
# [16] = molecular target: Fuc(a1-2)[GalNAc(a1-3)]Gal(b1-3)GlcNAc(b1-6)GalNAc
# Summary of the method: as §1
# [17] = molecular target: Fuc(a1-2)[GalNAc(a1-3)]Gal(b1-4)Glc
# Summary of the method: as §1
# [18] = molecular target: Fuc(a1-2)[GalNAc(a1-3)]Gal(b1-4)GlcNAc
# Summary of the method: as §1
# [19] = molecular target: Fuc(a1-2)[GalNAc(a1-3)]Gal(b1-4)GlcNAc(b1-2)Man
# Summary of the method: as §1
# [20] = molecular target: Fuc(a1-2)[GalNAc(a1-3)]Gal(b1-4)GlcNAc(b1-2)Man(a1-3)[Fuc(a1-2)[GalNAc(a1-3)]Gal(b1-4)GlcNAc(b1-2)Man(a1-6)]Man(b1-4)GlcNAc(b1-4)GlcNAc
# Summary of the method: as §1
# [21] = molecular target: Fuc(a1-2)[GalNAc(a1-3)]Gal(b1-4)GlcNAc(b1-2)Man(a1-3)[Fuc(a1-2)[GalNAc(a1-3)]Gal(b1-4)GlcNAc(b1-2)Man(a1-6)]Man(b1-4)GlcNAc(b1-4)[Fuc(a1-6)]GlcNAc
# Summary of the method: as §1
# [22] = molecular target: Fuc(a1-2)[GalNAc(a1-3)]Gal(b1-4)GlcNAc(b1-3)Gal(b1-4)GlcNAc
# Summary of the method: as §1
# [23] = molecular target: Fuc(a1-2)[GalNAc(a1-3)]Gal(b1-4)GlcNAc(b1-3)Gal(b1-4)GlcNAc(b1-3)Gal(b1-4)GlcNAc
# Summary of the method: as §1
# [24] = molecular target: Fuc(a1-2)[GalNAc(a1-3)]Gal(b1-4)GlcNAc(b1-3)GalNAc
# Summary of the method: as §1
# [25] = molecular target: Fuc(a1-2)[GalNAc(a1-3)]Gal(b1-4)GlcNAc(b1-3)[Fuc(a1-2)[GalNAc(a1-3)]Gal(b1-4)GlcNAc(b1-6)]GalNAc
# Summary of the method: as §1
# [26] = molecular target: Fuc(a1-2)[GalNAc(a1-3)]Gal(b1-4)GlcNAc(b1-6)GalNAc
# Summary of the method: as §1
# [27] = molecular target: Fuc(a1-2)[GalNAc(a1-3)]Gal(b1-4)[Fuc(a1-3)]GlcNAc
# Summary of the method: as §1
# [28] = molecular target: Fuc(a1-2)[GalNAc(a1-3)]Gal(b1-4)[Fuc(a1-3)]GlcNAc(b1-3)GalNAc
# Summary of the method: as §1
# [29] = molecular target: Fuc(a1-2)[GalNAc(a1-4)]Gal(b1-4)GlcNAc
# Summary of the method: as §1
# [30] = molecular target: Fuc(a1-2)[GalNAc(b1-3)]Gal
# Summary of the method: as §1
# Fuc(a1-3)GlcNAc = molecular target: Fuc(a1-3)GlcNAc
# Summary of the method: as §1
# [31] = molecular target: Fuc(a1-3)[Gal(b1-4)]Glc6S
# Summary of the method: as §1
# [32] = molecular target: Fuc(a1-3)[Gal(b1-4)]GlcNAc
# Summary of the method: as §1
# [33] = molecular target: Fuc(a1-3)[Gal(b1-4)]GlcNAc(b1-2)Man
# Summary of the method: as §1
# [34] = molecular target: Fuc(a1-3)[Gal(b1-4)]GlcNAc(b1-2)Man(a1-3)[Fuc(a1-3)[Gal(b1-4)]GlcNAc(b1-2)Man(a1-6)]Man(b1-4)GlcNAc(b1-4)GlcNAc
# Summary of the method: as §1
# [35] = molecular target: Fuc(a1-3)[Gal(b1-4)]GlcNAc(b1-2)Man(a1-3)[Fuc(a1-3)[Gal(b1-4)]GlcNAc(b1-2)Man(a1-6)]Man(b1-4)GlcNAc(b1-4)[Fuc(a1-6)]GlcNAc
# Summary of the method: as §1
# [36] = molecular target: Fuc(a1-3)[Gal(b1-4)]GlcNAc(b1-3)Gal(b1-3)[Fuc(a1-4)]GlcNAc
# Summary of the method: as §1
binder,measurement,setting,value
B1,glycan array binding signal (z-score),[1],-0.092
same,glycan array binding signal (z-score),[2],-0.168
same,glycan array binding signal (z-score),[3],-0.136
same,glycan array binding signal (z-score),[4],-0.163
same,glycan array binding signal (z-score),[5],-0.153
same,glycan array binding signal (z-score),[6],-0.155
same,glycan array binding signal (z-score),[7],-0.156
same,glycan array binding signal (z-score),[8],-0.15
same,glycan array binding signal (z-score),[9],-0.168
same,glycan array binding signal (z-score),[10],-0.18
same,glycan array binding signal (z-score),[11],-0.174
same,glycan array binding signal (z-score),[12],-0.167
same,glycan array binding signal (z-score),[13],-0.159
same,glycan array binding signal (z-score),[14],-0.126
same,glycan array binding signal (z-score),[15],-0.144
same,glycan array binding signal (z-score),[16],-0.147
same,glycan array binding signal (z-score),[17],-0.146
same,glycan array binding signal (z-score),[18],-0.171
same,glycan array binding signal (z-score),[19],-0.174
same,glycan array binding signal (z-score),[20],-0.127
same,glycan array binding signal (z-score),[21],-0.101
same,glycan array binding signal (z-score),[22],-0.184
same,glycan array binding signal (z-score),[23],-0.117
same,glycan array binding signal (z-score),[24],-0.177
same,glycan array binding signal (z-score),[25],-0.16
same,glycan array binding signal (z-score),[26],-0.17
same,glycan array binding signal (z-score),[27],-0.175
same,glycan array binding signal (z-score),[28],-0.135
same,glycan array binding signal (z-score),[29],-0.177
same,glycan array binding signal (z-score),[30],-0.16
same,glycan array binding signal (z-score),Fuc(a1-3)GlcNAc,-0.183
same,glycan array binding signal (z-score),[31],-0.115
same,glycan array binding signal (z-score),[32],-0.175
same,glycan array binding signal (z-score),[33],-0.173
same,glycan array binding signal (z-score),[34],-0.182
same,glycan array binding signal (z-score),[35],-0.111
same,glycan array binding signal (z-score),[36],-0.164

# — the supplement of paper PMC8728848
